The results in this text go back to the RNAGym collection of RNA variant scans (doi:10.7554/elife.90254).

First the molecules themselves.
B1: LINE1-mini (parent)
chain: GGCAGAGCUCAACACAGCGUGGCAAAGUGGCUGUGGCUAGACUGCC

Read counts are not given, so values of variants with three or more changes are uncertain.

This data set covers variants of B1. Put plainly: self-cleavage, relative activity (ratio to wild type); higher = more cleavage; in vitro, sequencing; the parent is a self-cleaving ribozyme.
CGCAGAGCUAAACACAGCAUGUCAAAGUGGCUGUGGCUAGACUGCC: the self-cleavage was 0.01.
Regarding CGCAGAGCUCAACGCAGCAUGGCAAAGUGGCUGUGGCUGGACUGCC, the self-cleavage came out at 0.
The same measure for CGCAGAGCUCAACACAGCGUGGCAAAGUGGCUGUGGCUAGUCUGUC: 0.03; for CGCAGAGCUCAACACGGCGUGGUAAAGUGACUGUGGCUAGACUGCC: 0.03; for AGCAGAGCUCAACACAGCGUGGCAAAGUGGCUGUGGCGCGACUCCC: 0.19.
The same measure for CGCAGGGCUCAACACAGCGUGGCAUAGUGGCUGUGAUAAGACUGCC: 0.12; for AGCAGAGCUCAACACAGCGUGGCAAAGUGGCCGUGGCUAGUCUUCC: 0.01.
CGCAGAGCUUAACACAGCGUGGCAAAGUUGCUGUGGCUAGACUGCC: the self-cleavage stood at 0.04.
For the variant CGCAGAGCUUAACACAGCGUGGCACAAUGGCUGUGGCUAGUCUGAC, the self-cleavage stood at 0.01.
Take CGCAGGGCUCAAGACAGCGUGGCAAAGUGGCUGUGGCUAGACUGCC: the self-cleavage worked out at 0.1.
The same measure for CGCAGGGCUCAAUACAGCGUGGCAAAGUGGCUGUGGCUAGACUGCC: 0.08; for CGGAGAGCUCAACACAGCGUGGCACAGCGGCUGUGGCUAGACUGCC: 0.09; for AGCAGAGCUCAACACAGCGUGGCAAAGUGGCUGAAGCAAGACUACC: 0.03.
The same measure for CGUAGAGCUCAACACAGCGUGGCAAAUUGGCUGUGGCUAGACUGCC: 0.16; for CGUAGAGCUCAACACAGCGUGGCAAAGUGGCAGUGGCUAGACUGCC: 0.04.
The same measure for CGCUGAGCUCAACACAGUGUGUCAAAGUGGCUGUGGCUAGACUGCC: 0.14.
With CGCAGUGCUCAACACAGCGUGGCAAAGUGGCUGUGGCUAGACUGAA, the self-cleavage was determined as 0.06.
The same measure for CGCUGAGCUCAACACACCGUUGCAAAGUGGGUGUGGCUAGACUGCC: 0.01.
For CGCAGGGCUCAACACAGCGUGGCAAAGUGGCUUUGGCUAGACUGCC, the self-cleavage came out at 0.03.
The same measure for CGCAGUGCUCAACAUAGCGUGGCAAAGUGGCUGUGGCUAGACUGCC: 0.1; for CGCCGAGCCCAACACAGCGUGGCAAAGUGCCUUUGGCUAGACUGCC: 0.01; for CGCAGAGCUAAACACAGCGUGGCAAAGUGGCUAUGGCUCGACUGCC: 0.01.
The figure for CGGAGACCUAAACACAGCGUGGCAAAGUGGCUGUGGCUGGACUGCC is 0.02; for CGCAGAGUUCAACACAGCGUGGCAAAGUGGCUGUGGCUACACUGCC it is 0.01.
The figure for CGCAGGGCUAAACACAGCGUGGCAAAGUGGCUGUGGCGAGCCUGCC is 0.01; for CGAAGAUCUCAAAUGAGCGUGGCAAACUGGCUGUGGCUAGACUUGC it is 0.16; for CGCAGAGCUUAACACUGCGUGGCAAAGUGGCUGUGGCUAAACUGCC it is 0.02.
As to CGCAGUACUCAACAGACCGUUGCAGAGUGACUGUGGCUAGACUGCC, the self-cleavage is 0.01.
As to CGCAGAGCUCAACGAAGUGUGGCAAAGUGGGUGUGGCUAGACCGCC, the self-cleavage was determined as 0.02.
The figure for CGCAGAGCUUAAAACAGCGUGGCAAAGUGGCUGUGGCUAGACUGCC is 0.01; for CGCAGAGAUAAACACAGCGUGGCAAAGUGGCUGUGGCUAGACUGCC it is 0; for CGCCGAGCUCAACACAGCGUGACAAAGUGGCUGUGGCUAGACUGCC it is 0.03.
The same measure for CGCAGAGCUCAACACUGCGUGGCAAAGUGGCUGUGGAUAGACUGCC: 0.02; for AGCAGAGCUCAACACAGCGCGGGAAAGUGGCUGUGGCUAGACUGCC: 2.06.
The figure for CGCAGUGCUCAACACAGCGUGGCAAAGUGGCUGUGGCUAGACUUCC is 0.06; for CGCAGAGCUCAACACAGCGUGGCAGAGUGGCUAUGGCUAGACUGCC it is 0.01.
In the case of CGCUGAGCUCAACACAGCCUGGCAAAGUGCUUGUGGCUAGACUGCC, the self-cleavage amounted to 0.02.
The figure for CGCAGUGCUCUACACAGCGUGGCAAAGUGGAUGUGGCUUGACUGCC is 0.01.
In the case of CGCAGAGCUCAACUCAGCGUGGCAAAGUCGCUGUGGCUAGACUGCC, the self-cleavage was 0.06.
The figure for CGCAGAGCUCAUCACAGCGUGGCAAACUGGCUGUGGCUAGACUGCC is 0.03; for AGCAGAGCUCAACACAGCGGUGCAAAGUGGCUGUGGCUAGACUGCC it is 0.45.
The same measure for CGUAGAGCUCCACACAGCGUGGCAAAGUGGCUGCGGCUAGACUGCC: 0.02.
CGCCGUGCUCAACACAGCGUGUUAAAGUGGCUGUGGCUAGACUGAC: the self-cleavage came out at 0.02.
For the variant CGCAGAGAUCAACACACUGUGGCAAAGUGGCUAUGGCAACACGGCC, the self-cleavage is 0.01.
Consider CGCAGAGCUAAACUCAGCGUGGAAAAGUGGCUGUGGCUAGACUGCC, for which the self-cleavage stood at 0.
The figure for CGCAGAGCUCAACACCGCGUGGCAAAGUGGCUGUAGCUAGACUGCC is 0.03; for CGCAGAGCUCAACCCAGCGUGGCAAGGAGGCUGAGGGUAGACUGCC it is 0; for CGCAGAGGUCAACACAGAGUGGCAAAGUGGCUGUGGCUACCCUGCC it is 0.02.
The figure for CGCAGGGUUGAACACAGCGUGGCAAAGUGGAUGUGGCUAGACUGCC is 0.01.
On to CGCAGAGCUGAACACAGCGUGGCAAAGUUGCUGUGGCUAGAAUGCC, for which the self-cleavage is 0.01.
In the case of CGCAGAGCUCAACACCGCGGGGAAAAGUGGCCGUGGCCAGACUGCG, the self-cleavage worked out at 0.
The same measure for AGCAGAGCUCAACACAGCGUGGCAAAGAGGCUGCGGCUGGACUGCC: 0.02; for CGCAGAGCUCAACACCGCGUCGCACAGUGGCUGUGGCUAGACUGCC: 0.01.
With CGCAGAGCUCAUCACAGUGUGGCAAAGCGGCAGUGGUUACACUGCC, the self-cleavage came out at 0.
In the case of CGCAGAGCUCAACGUAGCGUGGCAGAGUGGCUGUGGCUAGACUCCC, the self-cleavage is 0.01.
The figure for CGCAGAGCUGAACACAGCGUGGCAAAGUGGCUGUGGCUGGACUGCC is 0.
